Assay results as given in the supplement of paper PMC3334620.
In all, about 33,000 sequences were measured (“E-score (-0.5 to 0.5)”: median about -0.04, highest 2% from about 0.36 on). This is one part of the list.

What follows are sequences tested against T1, Hmlalpha2 (UniProt P0CY09) (assay: PBM E-score (8-mer binding enrichment) (E-score (-0.5 to 0.5)); higher = stronger / more preferred TF binding; most listed sequences are background and not binding sites). Details: protein concentration: 200 nM; construct: GST-full length.
T1 sequence: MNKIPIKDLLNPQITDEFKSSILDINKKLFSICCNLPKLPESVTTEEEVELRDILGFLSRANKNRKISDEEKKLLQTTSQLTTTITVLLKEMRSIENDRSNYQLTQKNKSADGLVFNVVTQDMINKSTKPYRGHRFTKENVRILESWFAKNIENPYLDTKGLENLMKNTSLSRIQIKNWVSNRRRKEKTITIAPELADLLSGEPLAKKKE
Procedure: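 Universal 'all 10-mer' protein binding microarrays (Agilent AMADID 015681) probed with GST-tagged S. cerevisiae TFs (full-length or DBD) made by in vitro transcription/translation (PURExpress), about 100-200 nM. Bound TF was detected with fluorescent anti-GST. Each ungapped 8-mer (which stands for itself and its reverse complement) is scored by the PBM enrichment score (E-score), a modified Wilcoxon-Mann-Whitney statistic from -0.5 to +0.5, computed with the Universal PBM Analysis Suite. Scale: above 0.35 generally sequence-specific binding.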

Row | Sequence | PBM E-score
1 | ATCTGTTG | 0.0561
2 | GCGCTATA | -0.00498
3 | AGCTGCGG | -0.251
4 | CACGTTAA | 0.376
5 | AGTCCCGG | -0.272
6 | CTTAACAA | 0.307
7 | GAAACCCA | 0.085
8 | AGACAATC | 0.0394
9 | AAAGCTCA | 0.0369
10 | GAGCGGGC | -0.261
11 | ATGGGCAC | -0.0255
12 | AGGATGAA | -0.246
13 | GCGCTCAC | -0.159
14 | ACAATGGG | 0.0325
15 | AGTATAAA | 0.209
16 | CGTCTGTA | 0.198
17 | CCCGCGTA | 0.237
18 | CCCGACAA | -0.0214
19 | CTCGGTAC | -0.155
20 | TACCGGAA | -0.137
21 | CTAGGACC | -0.378
22 | AGTAGAGA | -0.135

Row | Sequence | PBM E-score
23 | AGTGGAGA | -0.136
24 | AAGGCTGG | -0.187
25 | CCCAAAAG | -0.0787
26 | CTCACGAC | -0.289
27 | ATAGTGGC | -0.192
28 | ATAGGGGG | -0.245
29 | AATACTCA | 0.18
30 | ACGACAGT | 0.0232
31 | TACGCGCA | 0.252
32 | CGAACATC | 0.0569
33 | AGTCTGGC | 0.00106
34 | GTCCCAGA | -0.286
35 | CCTCAGAG | -0.398
36 | CCCGTGCA | -0.228
37 | AGCCTTAG | -0.129
38 | ACATTATG | 0.216
39 | AGGTGTGC | -0.173
40 | GATTGAAA | -0.021
41 | CTAGTATC | -0.112
42 | ACATGTTA | 0.461
43 | TAACACCA | 0.314
44 | CATAAGCA | 0.065

Row | Sequence | PBM E-score
45 | AACATACT | 0.255
46 | CGACGCTA | 0.0385
47 | CTATATGC | 0.1
48 | AATTTGAA | 0.018
49 | AGCCGAGG | 0.0161
50 | CCGATAAG | -0.244
51 | GATCTAGC | -0.159
52 | TCTCGAGA | 0.0884
53 | AGGTCTAT | -0.0234
54 | AGATCAAT | -0.0554
55 | GCTTATAA | -0.0644
56 | ACCGCAGA | -0.216
57 | CGTTGACC | 0.1
58 | GAAGCATC | -0.324
59 | CAGCTGGC | -0.157
60 | CCAATGGA | -0.202
61 | ACCCCAGG | -0.274
62 | CTTAACGC | 0.278
63 | AGTCAGAT | -0.00404
64 | AACCAGCT | 0.164
65 | CTGGAACC | -0.109
66 | AGGCTATG | -0.0502

Row | Sequence | PBM E-score
67 | CGTGATTA | 0.253
68 | CCAGGCGC | -0.162
69 | GAGTTAAC | 0.234
70 | ACGACGAC | -0.179
71 | GCTCGTCC | -0.111
72 | GAACATCA | -0.0481
73 | CAGTGCGC | -0.267
74 | ATGTGTAA | 0.452
75 | CTTGACAC | 0.195
76 | ATCCGGCC | -0.269
77 | GCCCTATA | -0.212
78 | TAAAAAGA | 0.0525
79 | ACGTGCGC | 0.209
80 | TTCCCAAA | 0.103
81 | CAACGCCA | 0.0571
82 | CATGCTGA | 0.14
83 | ATACGAGC | 0.195
84 | GTTCTGTA | 0.169
85 | CATACTGG | 0.0171
86 | ACTTCAGG | -0.0344
